Screen size: about 220,000 compounds; about 16,000 (7.3%) were called active. The inconclusive results got no clear call from the source; some entries with a clear call stand among them for comparison. The call rests on the fitted dose curve; in most records, active means well fitted inhibition curve with a large enough effect (not every such curve was filed as active); inconclusive means small, poorly fitted or top-dose-only effect, or another doubt; inactive means no such curve, though single readings can be large or run the other way. Potencies of inconclusive entries are left out as doubtful fits.
These molecules were tested against Aldehyde dehydrogenase 1A1 (Homo sapiens) (UniProt P00352) (assay: qHTS Assay for Inhibitors of Aldehyde Dehydrogenase 1 (ALDH1A1)). Conditions: Purified ALDH1A1, NADH fluorescence, propionaldehyde substrate; series mostly up to 75.3 µM; activity, negative = inhibition: at the top concentration.
Sequence of UniProt P00352 (P00352 whole entry, looked up): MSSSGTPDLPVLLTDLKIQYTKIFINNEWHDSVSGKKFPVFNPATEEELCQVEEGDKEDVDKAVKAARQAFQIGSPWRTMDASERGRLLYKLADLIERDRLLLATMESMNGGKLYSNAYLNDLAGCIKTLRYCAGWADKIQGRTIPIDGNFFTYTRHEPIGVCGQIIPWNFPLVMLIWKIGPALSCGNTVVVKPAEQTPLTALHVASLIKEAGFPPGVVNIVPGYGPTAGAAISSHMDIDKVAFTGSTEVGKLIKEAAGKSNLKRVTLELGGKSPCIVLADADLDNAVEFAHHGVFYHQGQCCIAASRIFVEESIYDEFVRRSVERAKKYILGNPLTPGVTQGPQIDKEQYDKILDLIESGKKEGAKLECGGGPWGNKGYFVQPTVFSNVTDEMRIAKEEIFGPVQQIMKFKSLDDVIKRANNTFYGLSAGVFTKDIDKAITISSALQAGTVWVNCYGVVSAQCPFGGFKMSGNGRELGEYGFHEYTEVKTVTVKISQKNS
For `CCOC(=O)c1c(O)[nH]c(=O)c(CC)c1C`, the activity, negative = inhibition was inactive: -0.294% [at 13.5 µM]. `CCCc1nc2ccccc2c(C(=O)OC(C)C(=O)NCc2ccc3c(c2)OCO3)c1CC` (centres undefined) was tested, and the Potency was active: 4.47 µM. In the case of `CCCCCN(CCCCC)C(=O)[C@H](CCC(=O)O)NC(=O)c1ccc(Cl)c(Cl)c1`, the “activity, negative = inhibition” value was inactive: 0.65% [at 20.9 µM]. `N#CC1=C(N)NC(SCc2ccccc2)=C(C#N)C12CCCC2` was tested, and the Potency was active: 25.1 µM. For `Cc1ccc(S(=O)(=O)Nc2cc(C(=O)NCCN(C)C)ccc2N2CCCCC2)cc1`, the Potency was active: 15.8 µM. In the case of `CCn1c([N+](=O)[O-])nc2c1c(=O)[nH]c(=O)n2C`, the Potency was active: 15.8 µM. In the case of `CCn1c(CNc2ccc(F)cc2)nnc1SCC(=O)Nc1ccc(OC)cc1`, the “activity, negative = inhibition” value was inactive: 2.24%. In the case of `Cc1cc(C)c[n+](CC(=O)c2cc3ccccc3oc2=O)c1`, the Potency was inconclusive [inhibitor, single point]. `COC(=O)C1=CN(CC2CCCO2)C=C(C(=O)OC)C1c1ccsc1` (centres undefined) was tested, and the Potency was inconclusive [inhibitor, partial curve]. With `O=C(CSc1c2c(nc3ccccc13)CCCC2)NCc1ccco1` the Potency was inconclusive [inhibitor, single point]. With `O=C(Nc1cccc(F)c1)N1CC[C@@]2(CCCNC2)C1` the Potency was active: 25.1 µM. `COC(=O)Cn1c(=NC(=O)C(C)C)sc2c(C)cc(C)cc21` was tested, and the “activity, negative = inhibition” value was inactive: -12.6%. With `COc1ccccc1NC(=O)c1ccc(NC(=O)CN2C(=O)CN(C)C2=O)cc1` the Potency was inconclusive [inhibitor, single point]. With `CC1CC1C(=O)Nc1ccc(-c2ccccc2)cc1` (centres undefined) the “activity, negative = inhibition” value was inactive: 8.1%. For `CCNC(=O)c1cc2c(=O)n3cccc(C)c3nc2n(Cc2ccc(C)cc2)c1=N`, the Potency was inconclusive [inhibitor, partial curve]. In the case of `COc1ccc(-c2nc3cnc(N4CCN(C)CC4)nc3n(Cc3cccs3)c2=O)cc1`, the “activity, negative = inhibition” value was inactive: -5.13%. For `COCCCn1c(-c2ccc(S(=O)(=O)N3CCOCC3)cc2)csc1=Nc1ccccc1`, the Potency was active: 14.1 µM. In the case of `CC(=O)OCC1OC(Oc2cc(OC(C)=O)c3c(=O)cc(-c4ccc(OC(C)=O)c(OC(C)=O)c4)oc3c2)C(OC(C)=O)C(OC(C)=O)C1OC(C)=O` (centres undefined), the “activity, negative = inhibition” value was inactive: -1.54%. In the case of `C=C(C)Cn1c(-c2ccc(OC)cc2)nc2ccccc21`, the Potency was inconclusive [inhibitor, partial curve]. `O=C(c1ccc(Cl)cc1)N1CCCCC(Sc2nnc(-c3ccc4c(c3)OCO4)o2)C1=O` (centres undefined) was tested, and the Potency was inconclusive [inhibitor, single point]. With `COc1ccc(C2CC(c3ccco3)n3ncnc3N2)cc1` (centres undefined) the Potency was inconclusive [inhibitor, single point]. In the case of `CCN(CC)S(=O)(=O)c1ccc(Oc2ccc(S(=O)(=O)N(CC)CC)cc2)cc1`, the “activity, negative = inhibition” value was inactive: -7.62%. In the case of `O=C1/C(=C/c2ccccc2O)SC(=S)N1Cc1cccnc1`, the Potency was active: 7.51 µM. In the case of `Cc1c(C=O)c2ccccn2c1C(=O)c1cccc([N+](=O)[O-])c1`, the Potency was inconclusive [inhibitor, single point]. In the case of `COc1ccc(NC(=O)CSc2nnc(Cn3c(=O)sc4ccccc43)n2C)c(OC)c1`, the Potency was inconclusive [inhibitor, single point]. With `Cc1csc2nc(CNC(=O)C3CCCCC3)cn12` the “activity, negative = inhibition” value was inactive: 2.52%. For `Cc1nc(N2CCOCC2)c2nc(-c3ccccc3)n(CCN3CCCC3)c2n1`, the Potency was inconclusive [inhibitor, partial curve]. For `O=C(CSCSCC(=O)Nc1ccc2c(c1)OCO2)Nc1ccc2c(c1)OCO2`, the Potency was inconclusive [inhibitor, single point]. For `O=C1NN(c2ccccc2)C(=O)/C1=C/c1ccc(Sc2cccc3ccccc23)o1`, the “activity, negative = inhibition” value was inactive: -5.43%. With `O=C1Nc2ccc(F)cc2C12Nc1ccccc1-c1nnc(SCc3ccccc3)nc1O2` (centres undefined) the Potency was inconclusive [inhibitor, single point]. In the case of `O=C(NNC(=S)Nc1ccc(Cl)c(Cl)c1)c1ccccn1`, the Potency was active: 3.16 µM. `CCOc1ccccc1OCCCC(=O)N(C)CC(=O)Nc1cc(C)ccc1C` was tested, and the “activity, negative = inhibition” value was inactive: -0.65%. `COc1ccc(Cl)cc1NC(=O)CN(C)CC(=O)NC(C)c1ccccc1` (centres undefined) was tested, and the Potency was inconclusive [inhibitor, single point]. For `CCCCCCc1cc2cc(C(=O)Nc3ccccc3)c(=O)oc2cc1O`, the “activity, negative = inhibition” value was inactive: 138%. For `O=C(CSc1nccc(=O)[nH]1)NCc1ccc(Cl)cc1`, the “activity, negative = inhibition” value was inactive: 7.35%. For `O=C(COc1ccc(Br)cc1)N1CCN(c2ccc([N+](=O)[O-])c(N3CCCCC3)c2)CC1`, the Potency was active: 3.98 µM. For `CCc1cccc(CC)c1NC(=O)CN1C2CCCC1CC(NC(=O)Nc1cccc(OC)c1)C2` (centres undefined), the “activity, negative = inhibition” value was inactive: 4.82%. In the case of `Cc1cc(C)c(S(C)(=O)=O)c(Oc2ccc(F)cc2)n1`, the “activity, negative = inhibition” value was inactive: -40.9%. In the case of `Cc1cc2occ(CC(=O)Nc3nnc(C4CC4)s3)c2cc1C`, the “activity, negative = inhibition” value was inactive: 0.949%. With `O=C1N/C(=C/c2ccc(N3CCOCC3)o2)C(=O)N1c1ccccc1` the Potency was active: 7.08 µM. In the case of `COc1ccc(CCNC(=O)Cn2c(=O)n(-c3cc(F)ccc3F)c(=O)c3sccc32)cc1OC`, the Potency was active: 1 µM. With `COc1ccc(CCNC(=O)c2ccc(CNS(=O)(=O)c3ccc(C(C)(C)C)cc3)cc2)cc1OC` the Potency was inconclusive [inhibitor, partial curve]. `CCCOC(=O)c1ccc(NC(=O)C2C3C=CC(O3)C2C(=O)O)cc1` (centres undefined) was tested, and the Potency was active: 1.78 µM. In the case of `c1ccc2c(-n3cnnn3)cccc2c1`, the Potency was inconclusive [inhibitor, partial curve]. For `O=c1c(-c2ccco2)[n+]([O-])c2ccccc2n1OCc1ccccn1`, the Potency was active: 10 µM. With `C=C1C2CC[C@@]3(C)C(c4ccoc4)OC(=O)C[C@@]13OC1CC(=O)C(C)(C)C(CC(=O)OC)[C@]12C` (some centres undefined) the “activity, negative = inhibition” value was inactive: 0.301%. With `CCC(c1nnnn1CCOC)N1CCN(Cc2ccccc2)CC1` (centres undefined) the Potency was inconclusive [inhibitor, single point]. In the case of `O=C(COC(=O)c1cc(S(=O)(=O)N2CCOCC2)ccc1O)NCCc1ccccc1`, the Potency was inconclusive [inhibitor, single point]. With `COC(=O)C/C=C/[C@@H](C)[C@@H](/C=N/O[C@@H](C)c1cn([C@H](CO)Cc2ccccc2)nn1)NS(=O)(=O)c1ccc(C)cc1` the Potency was active: 17.8 µM.

From PubChem BioAssay AID1030 (National Center for Advancing Translational Sciences (NCATS), 2008)
Potency means the concentration at half of the fitted maximal effect; tags describe the fitted curve by direction and shape.
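Wherever activity, negative = inhibition is given: plate controls were no enzyme wells and a reference inhibitor.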
